T1: FGF21 co-receptor (β-klotho) (UniProt Q86Z14 1-1044, limits assumed)
T1 sequence (looked up): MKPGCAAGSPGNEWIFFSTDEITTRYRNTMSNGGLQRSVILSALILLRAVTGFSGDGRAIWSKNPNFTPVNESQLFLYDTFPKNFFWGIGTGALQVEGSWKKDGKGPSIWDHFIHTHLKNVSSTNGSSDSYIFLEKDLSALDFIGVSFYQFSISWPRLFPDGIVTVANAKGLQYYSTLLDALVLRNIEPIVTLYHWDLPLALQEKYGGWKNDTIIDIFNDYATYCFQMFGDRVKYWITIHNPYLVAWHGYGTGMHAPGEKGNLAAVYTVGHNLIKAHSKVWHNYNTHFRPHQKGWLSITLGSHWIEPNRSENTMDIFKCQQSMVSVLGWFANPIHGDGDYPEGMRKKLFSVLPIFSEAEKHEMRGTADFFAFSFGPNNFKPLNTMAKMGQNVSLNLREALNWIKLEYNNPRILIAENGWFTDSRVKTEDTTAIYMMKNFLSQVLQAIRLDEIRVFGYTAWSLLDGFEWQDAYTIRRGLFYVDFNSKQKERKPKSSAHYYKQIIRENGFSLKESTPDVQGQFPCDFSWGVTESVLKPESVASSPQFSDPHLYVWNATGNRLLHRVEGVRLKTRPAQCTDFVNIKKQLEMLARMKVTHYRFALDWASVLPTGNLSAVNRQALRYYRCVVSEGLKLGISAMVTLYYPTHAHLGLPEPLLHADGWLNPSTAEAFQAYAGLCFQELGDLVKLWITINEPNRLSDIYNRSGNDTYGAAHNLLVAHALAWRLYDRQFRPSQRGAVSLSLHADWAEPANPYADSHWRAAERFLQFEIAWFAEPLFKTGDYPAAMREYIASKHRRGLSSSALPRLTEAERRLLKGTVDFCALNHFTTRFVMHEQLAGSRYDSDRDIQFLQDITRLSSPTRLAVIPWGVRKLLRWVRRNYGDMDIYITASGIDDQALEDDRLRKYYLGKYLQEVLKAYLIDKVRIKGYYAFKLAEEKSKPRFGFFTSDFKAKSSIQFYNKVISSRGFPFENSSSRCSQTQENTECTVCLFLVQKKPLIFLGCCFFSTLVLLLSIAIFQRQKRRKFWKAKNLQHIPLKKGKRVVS


Key:
[1] = target: T1, FGF21 co-receptor (β-klotho); assay: cell-based or functional assay
GLP1 receptor = GLP1 receptor (UniProt P43220 24-463, limits assumed); assay: cell-based or functional assay

EC50 (nM), luciferase expression in HEK293-GLP1R/β-klotho/CRE-Luciferase cells [1]	EC50 (nM), luciferase expression in HEK293-GLP1R/β-klotho/CRE-Luciferase cells (GLP1 receptor)	Binder
2.46 nM	2.46 nM	G-L-Fc-L-Fv5 (Fc fusion) HGEGTFTSDVSSYLEEQAAKEFIAWLVKGGGGGGGSGGGGSGGGGSA[omitted - human IgG4 Fc with S228P F234A L235A (EU numbers)]GGGGSGGGGSGGGGSDSSPLLQFGGQVRQVYLYTDDAQQTEAHLEIREDGTVGGAADQSPESLLQLKALKPGVIQILGVKTSRFLCQRPDGALYGSLHFDPEACSFRELLLEDGYNVYQSEAHGLPLHCPGNKSPHRDPAPRGPCRFLPLPGLPPALPEPPGILAPQPPDVGSSDPLSMVGGSQGRSPSYES
3.95 nM	3.95 nM	G-L-Fc-L-Fv2 (Fc fusion) HGEGTFTSDVSSYLEEQAAKEFIAWLVKGGGGGGGSGGGGSGGGGSA[omitted - human IgG4 Fc with S228P F234A L235A (EU numbers)]GGGGSGGGGSGGGGSDSSPLLQFGGQVRQRYLYTDDAQQTEAHLEIREDGTVGGAADQSPESLLQLKALKPGVIQILGVKTSRFLCQRPDGALYGSLHFDPEACSFRELLLEDGYNVYQSEAHGLPLHCPGNKSPHRDPAPRGPCRFLPLPGLPPALPEPPGILAPQPPDVGSSDPLSMVGGSQGRSPSYAS
3.25 nM	3.25 nM	G-L-Fc-L-Fv4 (Fc fusion) HGEGTFTSDVSSYLEEQAAKEFIAWLVKGGGGGGGSGGGGSGGGGSA[omitted - human IgG4 Fc with S228P F234A L235A (EU numbers)]GGGGSGGGGSGGGGSDSSPLLQFGGQVRQVYLYTDDAQQTEAHLEIREDGTVGGAADQSPESLLQLKALKPGVIQILGVKTSRFLCQRPDGALYGSLHFDPEACSFRERLLEDGYNVYQSEAHGLPLHLPGNKSPHRDPAPRGPARFLPLPGLPPALPEPPGILAPQPPDVGSSDPLSMVGGSQGRSPSYES
2.87 nM	2.87 nM	G-L-Fc-L-Fv3 (Fc fusion) HGEGTFTSDVSSYLEEQAAKEFIAWLVKGGGGGGGSGGGGSGGGGSA[omitted - human IgG4 Fc with S228P F234A L235A (EU numbers)]GGGGSGGGGSGGGGSDSSPLLQFGGQVRQVYLYTDDAQQTEAHLEIREDGTVGGAADQSPESLLQLKALKPGVIQILGVKTSRFLCQRPDGALYGSLHFDPEACSFRELLLEDGYNVYQSEAHGLPLHCPGNKSPHRDPAPRGPCRFLPLPGLPPALPEPPGILAPQPPDVGSSDPLSMVGGSQGRSPSYAS

Reference: patent publication US20220096598A1 (BEIJING SHUANGYIN BIOTECHNOLOGY, published 2022)
